According to the supplement of paper PMC3334620:
Over roughly 33,000 sequences, “E-score (-0.5 to 0.5)” has its median near -0.054; the highest 2% begin near 0.35. Some of the results follow.

Molecular target: T1, Stb5 (UniProt P38699)
T1 sequence: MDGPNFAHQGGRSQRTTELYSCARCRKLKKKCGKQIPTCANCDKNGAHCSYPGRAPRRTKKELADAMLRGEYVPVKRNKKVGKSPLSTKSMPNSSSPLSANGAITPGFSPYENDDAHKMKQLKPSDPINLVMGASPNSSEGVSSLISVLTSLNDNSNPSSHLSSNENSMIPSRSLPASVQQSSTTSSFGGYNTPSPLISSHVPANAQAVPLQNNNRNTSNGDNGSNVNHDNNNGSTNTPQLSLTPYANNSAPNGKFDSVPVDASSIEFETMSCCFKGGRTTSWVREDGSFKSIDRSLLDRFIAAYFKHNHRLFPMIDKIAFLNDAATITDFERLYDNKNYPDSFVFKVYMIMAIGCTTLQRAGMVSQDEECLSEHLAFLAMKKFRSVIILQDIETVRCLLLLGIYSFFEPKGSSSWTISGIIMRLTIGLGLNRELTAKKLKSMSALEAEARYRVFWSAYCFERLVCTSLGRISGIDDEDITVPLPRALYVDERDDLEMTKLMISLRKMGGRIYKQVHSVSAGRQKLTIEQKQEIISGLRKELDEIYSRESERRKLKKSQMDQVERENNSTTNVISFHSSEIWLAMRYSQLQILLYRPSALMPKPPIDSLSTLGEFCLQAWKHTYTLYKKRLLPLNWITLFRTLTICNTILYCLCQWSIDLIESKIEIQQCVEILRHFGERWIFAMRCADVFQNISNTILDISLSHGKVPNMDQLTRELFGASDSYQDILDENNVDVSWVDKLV
Experiment: PBM E-score (8-mer binding enrichment) (E-score (-0.5 to 0.5)); higher = stronger / more preferred TF binding; most listed sequences are background and not binding sites
Conditions: protein concentration: 200 nM; construct: GST-full length
Method in brief: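 GST-tagged yeast TFs (full-length or DNA-binding domain) were made by PURExpress in vitro transcription/translation and applied at about 100-200 nM to universal all-10-mer Agilent arrays. The arrays were made double-stranded by primer extension, on fresh or once-stripped slides. Bound protein was detected with fluorescent anti-GST, and scans were normalised with masliner. Each ungapped eight-base word, pooled with its reverse complement, received an E-score (modified Wilcoxon-Mann-Whitney statistic) from the Universal PBM Analysis Suite.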

Compared with ACAGGTCA, CTCGGGTA is higher in “PBM E-score” value: -0.136 for the first, -0.061 for the second.

First: AATACGGG
Second: CGCCCGTC
The “PBM E-score” value of the first is higher: 0.254 for the first, 0.248 for the second.

Compared with GTGTACTA, GTCGGAAA is higher in “PBM E-score” value: -0.186 for the first, 0.274 for the second.

Going from GTAAGGTA to GCGCCGCC, the “PBM E-score” value rises from 0.00255 to 0.331.

Going from ATTCTACG to ATCAATTA, the “PBM E-score” value rises from -0.0844 to -0.0352.

Going from ACTTTCCG to AGCAATAC, the “PBM E-score” value falls from -0.0837 to -0.0979.

First: AGGTGGCG
Second: ACCTTGGG
The “PBM E-score” value of the first is lower: -0.092 for the first, -0.0415 for the second.

Going from TGTGTGAA to TCTACAAA, the “PBM E-score” value rises from -0.201 to -0.17.

Compared with ACTTGAGA, AATGTAGT is lower in “PBM E-score” value: -0.106 for the first, -0.128 for the second.

Compared with AACATGTA, AATCTTAT is higher in “PBM E-score” value: -0.0625 for the first, 0.0972 for the second.

Going from GTTTTCGA to CACAAATC, the “PBM E-score” value rises from -0.115 to 0.0762.

Compared with CATTGGTC, GGGGTGGA is higher in “PBM E-score” value: -0.129 for the first, 0.0436 for the second.

First: AACGAAAG
Second: AAAGTTCC
The “PBM E-score” value of the first is lower: -0.136 for the first, 0.163 for the second.

Going from TCATGAAA to GAGCCGGC, the “PBM E-score” value rises from 0.112 to 0.308.

First: AGTTTATG
Second: CAGTTCGG
The “PBM E-score” value of the first is lower: -0.0857 for the first, 0.206 for the second.

First: ATGTGTCG
Second: CACCTCTC
The “PBM E-score” value of the first is lower: -0.145 for the first, -0.132 for the second.

Going from CTAAGATA to CGTGAGCC, the “PBM E-score” value rises from -0.134 to 0.00989.

Compared with ATCCTCCG, CTAGTAAC is lower in “PBM E-score” value: 0.233 for the first, -0.213 for the second.

Compared with GACAATAA, CGACACTC is higher in “PBM E-score” value: 0.0907 for the first, 0.144 for the second.

Going from ATCGTCGC to CAGCGCGG, the “PBM E-score” value rises from -0.0423 to 0.286.

Going from ATTGATGG to CGACGGAG, the “PBM E-score” value rises from -0.0545 to 0.339.

Compared with CACCGGTG, CCGTTCAC is lower in “PBM E-score” value: 0.408 for the first, 0.0154 for the second.

Compared with GAAGGTCA, CCTACGAA is higher in “PBM E-score” value: -0.15 for the first, -0.0721 for the second.

First: ACCTCCTC
Second: CTTGTGTA
The “PBM E-score” value of the first is higher: -0.105 for the first, -0.265 for the second.

Compared with CCGAAAGA, CGCATCGC is lower in “PBM E-score” value: 0.196 for the first, -0.062 for the second.

Going from CCCTTCTC to GAATCTCC, the “PBM E-score” value rises from -0.0563 to 0.288.

Compared with GGACTTGA, CGGACGAA is higher in “PBM E-score” value: 0.132 for the first, 0.215 for the second.

Going from ACGGGCCC to ATTAAACC, the “PBM E-score” value falls from 0.253 to 0.108.

Compared with ATTCTTGG, AGACCCCT is lower in “PBM E-score” value: -0.0109 for the first, -0.373 for the second.

Compared with ATCAATGA, GGCCCACC is higher in “PBM E-score” value: -0.134 for the first, -0.0357 for the second.

Compared with CGATTCTC, ACGTACTA is lower in “PBM E-score” value: -0.0524 for the first, -0.237 for the second.

Compared with GAGGGGAA, CCTACTCC is lower in “PBM E-score” value: -0.12 for the first, -0.149 for the second.

Going from GACCCGCA to GCGCTCCA, the “PBM E-score” value falls from 0.164 to -0.0469.

First: ATCTATAG
Second: ACATCAAG
The “PBM E-score” value of the first is lower: -0.186 for the first, -0.153 for the second.

First: CTGATCCA
Second: CGCGCTCC
The “PBM E-score” value of the first is lower: -0.197 for the first, 0.0607 for the second.

Compared with AACTCCGG, GAGTGCTA is lower in “PBM E-score” value: 0.436 for the first, -0.191 for the second.

Compared with AGTTTGTC, TGAACCAA is lower in “PBM E-score” value: -0.0395 for the first, -0.321 for the second.

Going from AAATCAAA to ATCGCTAC, the “PBM E-score” value rises from -0.0611 to -0.0504.

Going from AGTTACCG to ACGGTATG, the “PBM E-score” value falls from 0.255 to 0.132.

Compared with CATATTCG, GCGTATAA is higher in “PBM E-score” value: 0.0955 for the first, 0.149 for the second.

Compared with GTAGACAA, AATATAGG is higher in “PBM E-score” value: -0.111 for the first, -0.0737 for the second.

First: CTGGCTCA
Second: CGTGGGAC
The “PBM E-score” value of the first is lower: -0.15 for the first, -0.0112 for the second.

First: TCGAACAA
Second: ACATCTGG
The “PBM E-score” value of the first is lower: -0.12 for the first, 0.141 for the second.

Going from GAAGGAGC to GAATTGAC, the “PBM E-score” value rises from -0.178 to -0.086.

Compared with CCAGGGCG, ATGCCTTG is lower in “PBM E-score” value: 0.139 for the first, -0.177 for the second.

Going from CTCCACGA to AAAGAGCG, the “PBM E-score” value rises from 0.0441 to 0.191.

Compared with AACAAGCC, GCCCCACA is lower in “PBM E-score” value: -0.176 for the first, -0.196 for the second.

Compared with GCGGGTCC, GCTATTCC is lower in “PBM E-score” value: 0.103 for the first, 0.069 for the second.

First: CGTCCTTA
Second: TCGGGGCA
The “PBM E-score” value of the first is lower: -0.0806 for the first, 0.227 for the second.

Going from TCATCGGA to CCAGAAGG, the “PBM E-score” value falls from 0.23 to 0.00315.

First: GTGCTTAA
Second: CGCTAACC
The “PBM E-score” value of the first is lower: 0.0288 for the first, 0.146 for the second.

Compared with TAGGATAA, ATCGTCAC is higher in “PBM E-score” value: -0.0737 for the first, 0.0193 for the second.

First: GACCTCCC
Second: ACATTTTC
The “PBM E-score” value of the first is lower: -0.0892 for the first, 0.00225 for the second.

Compared with ATCCTAAA, GGACATGA is lower in “PBM E-score” value: 0.13 for the first, 0.113 for the second.

Compared with ACTGACAA, GCAAGTCA is higher in “PBM E-score” value: -0.16 for the first, -0.116 for the second.

First: ACAACTAA
Second: ACCTAATA
The “PBM E-score” value of the first is lower: -0.117 for the first, -0.0293 for the second.

Going from GCGCCCGA to AGTTTTAG, the “PBM E-score” value falls from 0.177 to 0.00564.

First: GTTACTTA
Second: AAGACGCA
The “PBM E-score” value of the first is higher: 0.0421 for the first, -0.0754 for the second.

Going from CACCAGAG to TAGCGACA, the “PBM E-score” value rises from -0.323 to -0.139.

Going from AAATAAGG to AGCTCCAC, the “PBM E-score” value rises from -0.0269 to 0.0464.

Compared with ACACGATG, AGGAAGAC is higher in “PBM E-score” value: -0.258 for the first, -0.132 for the second.

First: GCATTAAC
Second: ATCGGCGC
The “PBM E-score” value of the first is lower: 0.138 for the first, 0.291 for the second.

First: ACGCCTCA
Second: GGTATAAC
The “PBM E-score” value of the first is lower: -0.328 for the first, 0.192 for the second.

Going from ATCACAAT to CACGGAAA, the “PBM E-score” value rises from -0.14 to 0.0619.

Compared with TAGATGGA, GAGTCCGC is higher in “PBM E-score” value: -0.124 for the first, 0.371 for the second.

Going from GTAGAATA to GGACGCAC, the “PBM E-score” value rises from -0.0512 to 0.0749.

Compared with CTAGCAAC, ACGTGACG is lower in “PBM E-score” value: 0.0401 for the first, -0.0173 for the second.

First: TCCACGCA
Second: GTATCGGA
The “PBM E-score” value of the first is lower: -0.0145 for the first, 0.263 for the second.

First: ACACGAAT
Second: CAGCTCGG
The “PBM E-score” value of the first is lower: -0.0603 for the first, 0.0984 for the second.

Going from AACCTAAT to AAGCCAGA, the “PBM E-score” value falls from -0.0428 to -0.169.

Going from AATATGAA to CTGCCTGA, the “PBM E-score” value falls from 0.00094 to -0.0444.

First: ACTACCGA
Second: ATTCCGCG
The “PBM E-score” value of the first is higher: 0.305 for the first, 0.156 for the second.

Going from CTCCAGAG to GTGACATA, the “PBM E-score” value rises from -0.057 to 0.0552.

First: AGGACTGG
Second: CCTCCTAG
The “PBM E-score” value of the first is lower: -0.338 for the first, -0.267 for the second.

First: GGGTGTAA
Second: ACCAAGGG
The “PBM E-score” value of the first is higher: 0.251 for the first, -0.0724 for the second.

Going from AATTCAAA to ATAGTCAA, the “PBM E-score” value rises from -0.185 to -0.138.

First: GGTCGCGA
Second: AGGGTGCC
The “PBM E-score” value of the first is higher: -0.0386 for the first, -0.154 for the second.

Going from ACGGACAT to AGCAGACA, the “PBM E-score” value falls from 0.41 to -0.246.

First: CACAAAGG
Second: CCCAGTCC
The “PBM E-score” value of the first is lower: -0.164 for the first, -0.0375 for the second.

Compared with CCACAGCC, CCCACTGA is lower in “PBM E-score” value: -0.196 for the first, -0.257 for the second.

First: CTACCTAA
Second: GGAATGTA
The “PBM E-score” value of the first is lower: -0.0868 for the first, -0.0691 for the second.

First: GACTCTGC
Second: AAAACTAC
The “PBM E-score” value of the first is lower: -0.247 for the first, 0.0614 for the second.

Going from AGCTGGAC to CTTTGGCA, the “PBM E-score” value falls from -0.157 to -0.23.

Going from GGGCCAAC to AAAAGGAA, the “PBM E-score” value falls from 0.0117 to -0.0269.

First: AACAGGAT
Second: CCAATGTC
The “PBM E-score” value of the first is lower: -0.27 for the first, -0.25 for the second.

Going from ACCGGACC to CATGGCTC, the “PBM E-score” value falls from 0.354 to -0.0621.
